Laboratory results published in PubChem BioAssay AID1347073 (National Center for Advancing Translational Sciences (NCATS), 2019).
About 200 (0.44%) of roughly 45,000 compounds were called active. Another 7% or so got no clear call; they are omitted. Calls follow the shape of the dose curve; as a rule, active = well fitted activation curve with a large enough effect; inconclusive = small, poorly fitted or top-dose-only effect; inactive = no such curve, though single readings can be large or run the other way. Some of the results follow.

Assay: qHTS of TDP-43 Inhibitors: NCGC Sytravon Library Screen; also: nearly all actives have a fitted effect of over 55% in size; as to growth rescue (activation): 0% is about no effect
Settings: yeast TDP-43 toxicity rescue, BacTiter-Glo growth, 24 h; series mostly up to 46.1 µM; growth rescue (activation): at the top concentration
In short: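 TDP-43-expressing yeast, pregrown in raffinose, seeded at OD600 0.02 in galactose medium with compound for 24 hr at 30 deg C. Growth read by BacTiter-Glo luminescence, so rescue of toxicity appears as activation.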
Potency is read from the fitted curve at half-maximal effect.

| SMILES | growth rescue (activation) | Potency |
| --- | --- | --- |
| CC(=O)Nc1ccc(S(=O)(=O)Nc2cc(Cl)ccc2N2CCOCC2)cc1 | inactive: 21.7% | – |
| COc1ccc(OC)c(NC(=O)c2cc3c(=O)n4ccccc4nc3n2C)c1 | inactive: 13.1% | – |
| COC(=O)Cc1[nH]nc2c1C(C1C=CCCC1)C(C#N)=C(N)O2 (stereo unspecified) | inactive: 6.03% | – |
| N#CCCN(Cc1cccnc1)C(=S)NC(=O)c1ccccc1 | inactive: 6.48% | – |
| Cc1ccc(S(=O)(=O)c2nc(-c3ccco3)oc2SC(C)C)cc1 | inactive: -3.47% | – |
| CCOCCCNC(=O)c1cc(Sc2nnc(C)s2)nc2ccccc12 | inactive: 10.6% | – |
| COCCCn1cnc2c(c1=O)c1nc3ccccc3nc1n2-c1ccccc1 | inactive: 13.4% | – |
| O=C1COc2ccc(C(=O)COC(=O)COc3ccccc3[N+](=O)[O-])cc2N1 | inactive: 4.09% | – |
| Cc1ccnc(NC(=O)CCC(=O)N(CC(=O)NCc2ccccc2)Cc2ccco2)c1 | inactive: 14.4% | – |
| CCOC(=O)c1[nH]c(C)c(C(=O)OCCOc2cccc(C)c2)c1C | inactive: -3.43% | – |
| COc1cccc(OCc2nnc3n2N=C(c2ccccc2)C(CC(=O)O)S3)c1 (stereo unspecified) | inactive: 8.63% | – |
| COc1ccc(NC(=S)NCCCN2CCCC2)cc1 | inactive: -1.51% | – |
| CCn1c(SCc2ccc(OC)c(F)c2)nc2ccccc2c1=O | inactive: -11.9% | – |
| NC(=O)c1cc(Cl)ccc1OCC(=O)N1CCCc2ccccc21 | inactive: 9.81% | – |
| N#Cc1ccc(COC(=O)CC(NC(N)=O)c2ccc(Cl)cc2)cc1 (stereo unspecified) | inactive: 11.8% | – |
| CC(C)c1onc(C(=O)NC2CCCCC2)c1[N+](=O)[O-] | inactive: 10.7% | – |
| COc1ccccc1NC(=O)c1cc2c(s1)-c1ccccc1S(=O)(=O)C2 | inactive: 14.2% | – |
| CC(=O)Nc1ccc(S(=O)(=O)NCC(=O)NNC(=O)COc2c(C)cccc2C)cc1 | inactive: 22.6% | – |
| COc1ccc(CN2C[C@@H](CO)O[C@@H](n3cnc4c(N5CCN(c6ccccc6)CC5)ncnc43)C2)cc1 | inactive: 3.44% | – |
| CCc1nnc(NC(=O)[C@@H](NS(=O)(=O)c2ccc3c(c2)OCCO3)C(C)C)s1 | inactive: 5.74% | – |
| COc1ccc(C2CC(c3ccccc3)=NN2C(=O)COC(=O)c2cccnc2Cl)cc1 (stereo unspecified) | inactive: 4.98% | – |
| Cc1cc(C#N)c2ccccc2n1 | inactive: 8.33% | – |

| SMILES | growth rescue (activation) | Potency |
| --- | --- | --- |
| O=C(/C=C/c1ccco1)OCC1CCCN2CCCCC12 (stereo unspecified) | inactive: -4.07% | – |
| COc1cccc(NC(=O)CCSc2ccc(C)cc2)c1 | inactive: 29.7% | – |
| COc1ccc(N(C(=O)c2snc(C(N)=O)c2N)C(C(=O)NC2CCCC2)c2ccc(F)cc2)c(OC)c1 (stereo unspecified) | inactive: 5.45% | – |
| CCCc1cc(=O)[nH]c(SCC(=O)N2CCOCC2)n1 | inactive: -1.73% | – |
| O=C(CNC(=O)c1ccco1)NCc1ccc2c(c1)OCO2 | inactive: 18.3% | – |
| O=C(Cc1ccccc1)N/N=C/c1ccc([N+](=O)[O-])s1 | inactive: -7.13% | – |
| CCS(=O)(=O)c1ccc2oc(Nc3ccc(OC)c(OC)c3)nc2c1 | inactive: 5.79% | – |
| CC(=O)Nc1ccc(N/C=C2/CCCC2=O)cc1 | inactive: -9.48% | – |
| COc1cc(OC)c(OC)cc1/C=N/NC(=O)c1ccc2nc[nH]c2c1 | inactive: -0.791% | – |
| O=C1NCCN(Cc2ccc(-c3ccccc3)cc2)C1CC(=O)N1CCN(CCO)CC1 (stereo unspecified) | inactive: -6.53% | – |
| Cc1ccc(S(=O)(=O)N2CCN(c3ccc([N+](=O)[O-])c4cccnc34)CC2)cc1 | inactive: -0.593% | – |
| COc1ccc([N+](=O)[O-])cc1N(CC(=O)NCCC1=CCCCC1)S(C)(=O)=O | inactive: -2.64% | – |
| CC1CC(C)CN(CC(=O)NCCc2ccc(S(N)(=O)=O)cc2)C1 (stereo unspecified) | inactive: 12.2% | – |
| COc1ccccc1N1CCN(C(=O)Cc2c(C(=O)O)[nH]c3ccc(Cl)cc23)CC1 | inactive: 1.76% | – |
| Cc1ccc(CCN2CC(C(=O)NCCN3CCOCC3)CC2=O)cc1 (stereo unspecified) | inactive: -9.41% | – |
| CCc1nc2c(OCC(=O)C(C)(C)C)cccn2c1N(C)C(=O)c1ccccc1F | inactive: 1.58% | – |
| Cc1ccc(-c2nn3cnnc3c3ccccc23)cc1 | inactive: 20.2% | – |
| COc1nc(-c2ccccc2)c2c(c1C#N)CC(C)(C)OC2 | inactive: 11% | – |
| Cc1cccc(N(C(=O)c2csnn2)C(C(=O)NCc2ccccc2)c2ccc(C)o2)c1 (stereo unspecified) | inactive: 16.3% | – |
| Cc1ccc(NC(=O)COC(=O)Cn2cnc3c2c(=O)n(C)c(=O)n3C)cc1 | inactive: -1.89% | – |
| COc1ccc(C)cc1NC(=O)c1cc2c(s1)-c1ccccc1SC2 | inactive: 23.7% | – |
| Cc1nn(C2CCS(=O)(=O)C2)c(Cl)c1/C=C/C(=O)OCC(=O)Nc1ccc2c(c1)OCO2 (stereo unspecified) | inactive: 13% | – |

| SMILES | growth rescue (activation) | Potency |
| --- | --- | --- |
| CCc1nc2ccc(C(=O)Nc3cc(-c4ccccc4)ccc3OC)cn2c1N(C)CCCc1ccccc1 | inactive: 13.9% | – |
| Cc1cc(O)ccc1N1C(=O)c2cccc3cc([N+](=O)[O-])cc(c23)C1=O | inactive: 7.97% | – |
| CC(=O)c1ccc(OCCCC(=O)Nc2ccc(C)c(S(=O)(=O)N3CCOCC3)c2)cc1 | inactive: 0.583% | – |
| COc1ccc(CN(Cc2ccc(C(=O)O)cc2)C(=S)Nc2ccccc2Cl)cc1OC | inactive: 7.93% | – |
| Cc1ccnc2nc(C(=O)OCC(=O)NC(=O)NCc3ccco3)nn12 | inactive: 3.39% | – |
| CCC(=O)NNC(=O)c1c(O)c2ccccc2[nH]c1=O | inactive: -10.2% | – |
| Cn1c(=O)n(C)c2cc(S(=O)(=O)N3CCCCC3)ccc21 | inactive: 6.72% | – |
| FC(F)(F)c1cnc(Sc2ncn[nH]2)c(Cl)c1 | inactive: -1.87% | – |
| O=C(N/N=C/C1=C(N2CCOCC2)C(=C\c2ccccc2)/CC1)Nc1ccccc1 | inactive: 6.05% | – |
| COc1ccc(NC(=O)C2CCCN(C(=O)Nc3ccc(F)cc3)C2)cc1OC (stereo unspecified) | inactive: 6.45% | – |
| CCOc1ccccc1C(=O)NCC(=O)N1CCC(C)CC1 | inactive: 11.8% | – |
| C/C(N)=C(/C#N)C(=O)CSc1nc(C2CCCCC2)n(-c2ccccc2)n1 | inactive: 21.2% | – |
| COc1ccccc1CNCC(=O)N1CC(=O)Nc2ccccc21 | inactive: -6.28% | – |
| NS(=O)(=O)c1cccc(NC(=O)Cn2nc(C(=O)O)c3ccccc3c2=O)c1 | inactive: -24.2% | – |
| COc1ccccc1Oc1ccc(N/C=C/C(=O)C(C)(C)C)cc1 | inactive: 4.42% | – |
| O=C(NCc1cccnc1)c1cc(C2CCCN(C(=O)c3cccc(O)c3)C2)on1 (stereo unspecified) | inactive: 19.8% | – |
| CN(C)S(=O)(=O)c1cccc(C(=O)Nc2ccc(C(=O)Nc3cccc(S(N)(=O)=O)c3)cc2)c1 | inactive: -18.9% | – |
| COc1ccccc1NC(=O)C1Cc2ccccc2CN1C(=O)c1ccco1 (stereo unspecified) | inactive: -0.528% | – |
| O=C(CC(Nc1ccc(F)cc1)C(=O)O)c1ccccc1 (stereo unspecified) | inactive: 18% | – |
| O=C(NCc1ccc(F)cc1)N1CCN(S(=O)(=O)c2ccccc2F)CC1 | inactive: 16.3% | – |
| O=C(COC(=O)/C=C/c1cccc(C(F)(F)F)c1)NCc1ccccc1 | inactive: 10.4% | – |
| Cc1cc(NC(=O)CCCN2C(=O)/C(=C/c3cccs3)SC2=S)no1 | inactive: 13% | – |

| SMILES | growth rescue (activation) | Potency |
| --- | --- | --- |
| CCOC(=O)c1ccc2nc(NC(C)=O)sc2c1 | inactive: 9.2% | – |
| CC(=O)N1N=C(c2cccs2)CC1c1cccc([N+](=O)[O-])c1 (stereo unspecified) | inactive: 25.2% | – |
| CCOc1ccc(CCNS(=O)(=O)c2ccc3c(c2)NC(=O)CC(=O)N3)cc1OCC | inactive: -7.67% | – |
| COc1cc(OC)c(S(=O)(=O)Nc2ccc(C(=O)O)cc2)cc1S(=O)(=O)Nc1ccc(C(=O)O)cc1 | inactive: -14.8% | – |
| CCCN(CCC)CCCNC(=O)c1cc2c(=O)n(CC)c3ccccc3c2s1 | inactive: -14% | – |
| Cc1ccc(Nc2cc(=O)[nH]c(=O)[nH]2)cc1C | – | inactive |
| CCOC(=O)C1CCN(C(=O)C(C)c2ccc([N+](=O)[O-])cc2)CC1 (stereo unspecified) | inactive: 21.4% | – |
| Cc1ccccc1-n1nc(C)c(N=O)c1N | inactive: -2.77% | – |
| CC(C)CN(C)C(=O)CCc1nnc(Cc2cccc(C(F)(F)F)c2)o1 | inactive: 4.78% | – |
| Cc1cc(N/N=C/c2ccc(O)cc2O)nc(-n2nc(C)cc2C)n1 | inactive: 9.14% | – |
| COc1cc(OC)c(CN2CCc3c([nH]c4ccccc34)C2)cc1Br | inactive: -9.64% | – |
| Cc1ccc(C(=O)C2CCN(CC(=O)N3CCN(c4ccc(F)cc4)CC3)CC2)cc1 | inactive: 8.69% | – |
| CS/C(=N\S(=O)(=O)c1cccs1)NC(=O)CSc1nc2ccccc2s1 | inactive: 8.34% | – |
| CCOc1ccc(NC(=O)COc2ccc(N3CC(C(N)=O)CC3=O)cc2)cc1 (stereo unspecified) | inactive: -7.42% | – |
| CCOCCCNC(=O)c1ccc2c(c1)ncn2-c1ccc(C)cc1C | inactive: 11% | – |
| COc1ccc(/C=C2\SC(=S)N(CCC(=O)NC3CCCC3)C2=O)cc1OC | inactive: 11.6% | – |
| C=CCNC(=O)CN1C(=O)NC(C)(c2ccc(OC)cc2)C1=O (stereo unspecified) | inactive: 16.3% | – |
| O=C1N(Cc2cccc(Cl)c2)C[C@@H]2C[C@@H](c3cccn3-c3nccs3)N3CCC[C@@]123 | inactive: 10.4% | – |
| CCOC(=O)c1oc2ccccc2c1NC(=O)CN1CCN(C)CC1 | inactive: 19.8% | – |
| S=C(Nc1ccc(Cl)cc1)c1nc2ccccc2[nH]1 | – | active: 10 µM |
| N#Cc1ccccc1OCC(=O)NNC(=O)CCC1CCCC1 | inactive: 11.1% | – |
| COc1ccc(/C=N/NC(=O)c2ccoc2C)cc1OC | inactive: 3.63% | – |

| SMILES | growth rescue (activation) | Potency |
| --- | --- | --- |
| CC(C(=O)NCC1CCCO1)c1ccc([N+](=O)[O-])cc1 (stereo unspecified) | inactive: 5.27% | – |
| COc1ccc(OCC#CCN2CC(C)OC(C)C2)cc1 (stereo unspecified) | inactive: 1.76% | – |
| O=C(Nc1ccc2ncccc2c1)c1ccccc1 | inactive: -0.868% | – |
| CNC(=O)CSc1nc(-c2ccccc2)c(-c2ccccc2)o1 | inactive: 2.03% | – |
| COCCNC(=O)C(c1ccc(OC)cc1)N(CCOC)C(=O)CCC(=O)Nc1nccs1 (stereo unspecified) | inactive: -12.3% | – |
| CC(=O)N1C(=O)N(C(C)=O)C2C1N(C)C(=O)N2C(C)=O (stereo unspecified) | inactive: 7.55% | – |
| CCn1cc(-c2ccnc3cc(C(=O)O)nn23)c(C)n1 | inactive: -6.16% | – |
| CC(C)n1nc(C(=O)Oc2cccc(Cl)c2Cl)c2ccccc2c1=O | inactive: 11.8% | – |
| CCCOc1ccc(N2C(=O)CC(N3CCN(CCN=CC4C(=O)CC(C)(C)CC4=O)CC3)C2=O)cc1 (stereo unspecified) | inactive: 39.4% | – |
| CCNC(=S)N(Cc1ccco1)Cc1cc2cc3c(cc2[nH]c1=O)OCCO3 | inactive: 24.6% | – |
| O=C(CSc1ccc2ccccc2c1)Nc1ncccn1 | inactive: 18.6% | – |
| C/C(=N\NC(=O)c1ccco1)c1cccc2ccccc12 | inactive: 20.5% | – |
| O=C(NC1CCCc2c1cnn2-c1ccc(F)cc1F)c1ccccn1 (stereo unspecified) | inactive: 22.1% | – |
| COc1ccccc1CNC(=O)CN1CCN(c2ccc(C(C)=O)cc2)CC1 | inactive: -17.1% | – |
| NNC(=O)/C(=C\c1cccs1)NC(=O)c1ccccc1 | inactive: 18.8% | – |
| O=C(Nc1ccc(Cl)c(S(=O)(=O)N2CCOCC2)c1)c1ccc(OCC2CCCO2)cc1 (stereo unspecified) | inactive: 13.2% | – |
| COc1ccc(NS(=O)(=O)c2ccc(C)c(NC(=O)C3CCCO3)c2)cc1 (stereo unspecified) | inactive: 17% | – |
| COc1ccc(C(CNC(=O)c2cccc(S(=O)(=O)N3CCc4ccccc43)c2)N(C)C)cc1 (stereo unspecified) | inactive: -6.42% | – |
